# Tested on: mOKT3-activated CD3+ target cells
# Test: ADCC assay: 51Cr-labelled mOKT3-activated CD3+ T cells with autologous CD56+ NK effector cells
# Type: cell-based, human
# Conditions: effector:target 25:1 or 10:1, 4 hours at 37° C., antibody 0.01-10 μg/mL
# Description: To evaluate whether incubation of activated T cells with anti-CD200 antibodies containing a constant region mediating effector function (e.g. an IgG1 constant region) results in the killing of the T cells, T cells were activated and killing assays were set up as described below.
# Human peripheral blood lymphocytes (PBLs) were obtained from normal healthy volunteers by density gradient centrifugation of heparinized whole blood using the Accuspin™ System. […] Eluted cells were washed, counted and resuspended in RPMI 1640 containing 5% heat-inactivated single donor serum, 2 mM L-glutamine, 10 mM Hepes and penicillin/streptomycin. […]
# Human peripheral blood lymphocytes (PBLs) from the same individual were obtained as described above by density gradient centrifugation. […] Eluted cells were washed, counted and resuspended at 1.3×10^6 cells/mL in RPMI 1640 containing 5% heat-inactivated single donor serum, 2 mM L-glutamine, 10 mM Hepes and penicillin/streptomycin. […] At the end of the culture period, the cells were harvested, washed, counted and resuspended in serum-free RPMI containing 2 mM L-glutamine, 10 mM Hepes, 2×10^−5 M 2-mercaptoethanol and penicillin/streptomycin. […]
molecule,measurement,setting,value
hB7V3V2-G1: humanized anti-CD200 antibody capable of mediating effector function (SEQ ID NOS: 15-20) (antibody) heavy: QVQLQQSGSELKKPGASVKISCKASGYSFTDYIILWVRQNPGKGLEWIGHIDPYYGSSNYNLKFKGRVTITADQSTTTAYMELSSLRSEDTAVYYCGRSKRDYFDYWGQGTTLTVSSASTKGPSVFPLAPSSKSTSGGTAALGCLVKDYFPEPVTVSWNSGALTSGVHTFPAVLQSSGLYSLSSVVTVPSSSLGTQTYICNVNHKPSNTKVDKRV[letters of human IgG1 Fc not shown] light: DIQMTQSPSSLSASIGDRVTITCKASQDINSYLSWFQQKPGKAPKLLIYRANRLVDGVPSRFSGSGSGTDYTLTISSLQPEDFAVYYCLQYDEFPYTFGGGTKLEIKRTVAAPSVFIFPPSDEQLKSGTASVVCLLNNFYPREAKVQWKVDNALQSGNSQESVTEQDSKDSTYSLSSTLTLSKADYEKHKVYACEVTHQGLSSPVTKSFNRGEC,ADCC of activated T-cell targets (percent specific lysis),,efficiently killed
same,ADCC of activated T-cell targets (percent specific lysis),listed as V3V2-G1,efficiently mediated ADCC

# — patent publication USRE46323E1, “Antibodies to OX-2/CD200 and uses thereof in inhibiting immune responses” (Alexion Pharmaceuticals, Inc., priority 2007, dated 2017)
